Measured values taken from the supplement of paper PMC4604168 (melanoma cell lines).
The list shows a part of the results. Single values are uncertain, as repeats are few or missing.

system: SkMel30; test: cell count relative to DMSO control; melanoma cells; higher = more viable cells; conditions: library dose: standard library concentration; 72 h
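Note: cells treated in 1,536-well plates, then fixed and DAPI-stained, with nuclei counted from automated high-throughput microscope images.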

Row | Structure (SMILES) | cell count [%]
1 | N.N.[Cl][Pt][Cl] [cisplatin] + COc1cc(Nc2ncc(F)c(Nc3ccc4c(n3)NC(=O)C(C)(C)O4)n2)cc(OC)c1OC [Tamatinib] (first compound 8 µM, partner dose 2 µM) | 77.9
2 | C[C@]12O[C@H](C[C@]1(O)CO)n1c3ccccc3c3c4c(c5c6ccccc6n2c5c31)CNC4=O [Lestaurtinib] + Nc1ncn([C@H]2C[C@H](O)[C@@H](CO)O2)c(=O)n1 [decitabine] (first compound 0.02 µM, partner dose 0.5 µM) | 80.5
3 | C[As](C)SC[C@H](NC(=O)CC[C@H](N)C(=O)O)C(=O)NCC(=O)O [Darinaparsin] + CCc1ccc(CCOc2ccc(CC3SC(=O)NC3=O)cc2)nc1 [pioglitazone] (first compound 2 µM, partner dose 10 µM) | 77.6
4 | C[As](C)SC[C@H](NC(=O)CC[C@H](N)C(=O)O)C(=O)NCC(=O)O [Darinaparsin] + O=C1NC(=O)/C(=C/c2ccc(-c3ccc(F)cc3O)o2)S1 [AS252424] (first compound 2 µM, partner dose 5 µM) | 90.9
5 | C[C@]12O[C@H](C[C@]1(O)CO)n1c3ccccc3c3c4c(c5c6ccccc6n2c5c31)CNC4=O [Lestaurtinib] + COc1ccc(Cl)c(Nc2nc3ccccc3nc2NS(=O)(=O)c2cccc(NC(=O)C(C)(C)N)c2)c1 [XL147] (first compound 0.02 µM, partner dose 4 µM) | 94.3
6 | Cn1cc(C2=C(c3cn(C4CCN(Cc5ccccn5)CC4)c4ccccc34)C(=O)NC2=O)c2ccccc21 [Enzastaurin] + OCc1c[nH]c2ccccc12 [Indole-3-carbinol] (first compound 4 µM, partner dose 4 µM) | 103
7 | C[As](C)SC[C@H](NC(=O)CC[C@H](N)C(=O)O)C(=O)NCC(=O)O [Darinaparsin] + O=c1cc(-c2cccc3c2Sc2ccccc2S3)oc(N2CCOCC2)c1 [KU55933] (first compound 2 µM, partner dose 5 µM) | 71.7
8 | Cn1cc(C2=C(c3cn(C4CCN(Cc5ccccn5)CC4)c4ccccc34)C(=O)NC2=O)c2ccccc21 [Enzastaurin] + Cc1cc(N2CCOCC2)cc2[nH]c(-c3c(NC[C@@H](O)c4cccc(Cl)c4)cc[nH]c3=O)nc12 [BMS536924] (first compound 4 µM, partner dose 1 µM) | 95.9
9 | Cn1cc(C2=C(c3cn(C4CCN(Cc5ccccn5)CC4)c4ccccc34)C(=O)NC2=O)c2ccccc21 [Enzastaurin] + NC(=O)Nc1cc(-c2cccc(F)c2)sc1C(=O)N[C@H]1CCCNC1 [AZD7762] (first compound 4 µM, partner dose 0.1 µM) | 80.9
10 | N.N.[Cl][Pt][Cl] [cisplatin] + CC(C)(C)c1cnc(CSc2cnc(NC(=O)C3CCNCC3)s2)o1 [SNS-032] (first compound 8 µM, partner dose 0.05 µM) | 88.6
11 | N.N.[Cl][Pt][Cl] [cisplatin] + OCCn1cc(-c2cnc3nnn(Cc4ccc5ncccc5c4)c3n2)cn1 [PF04217903] (first compound 8 µM, partner dose 5 µM) | 121
12 | Cn1cc(C2=C(c3cn(C4CCN(Cc5ccccn5)CC4)c4ccccc34)C(=O)NC2=O)c2ccccc21 [Enzastaurin] + N.N.[Cl][Pt][Cl] [cisplatin] (first compound 4 µM, partner dose 8 µM) | 95.3
13 | C[C@]12O[C@H](C[C@]1(O)CO)n1c3ccccc3c3c4c(c5c6ccccc6n2c5c31)CNC4=O [Lestaurtinib] + OCCn1cc(-c2cnc3nnn(Cc4ccc5ncccc5c4)c3n2)cn1 [PF04217903] (first compound 0.02 µM, partner dose 5 µM) | 98.7
14 | Cn1cc(C2=C(c3cn(C4CCN(Cc5ccccn5)CC4)c4ccccc34)C(=O)NC2=O)c2ccccc21 [Enzastaurin] + COc1ccc(Cl)c(Nc2nc3ccccc3nc2NS(=O)(=O)c2cccc(NC(=O)C(C)(C)N)c2)c1 [XL147] (first compound 4 µM, partner dose 4 µM) | 106
15 | C[As](C)SC[C@H](NC(=O)CC[C@H](N)C(=O)O)C(=O)NCC(=O)O [Darinaparsin] + O=C(O)c1ccc(-c2c[nH]c3ncc(-c4ccccc4)cc23)cc1C1CCCC1 [GSK650394] (first compound 2 µM, partner dose 0.8 µM) | 83.3
